The values that follow come from ChEMBL document CHEMBL4888484, “Replenishing the malaria drug discovery pipeline: Screening and hit evaluation of the MMV Hit Generation Library 1 (HGL1) against asexual blood stage Plasmodium falciparum ,using a nano luciferase reporter read-out” (2022).

SMILES strings stand for the structures. The whole screen tested about 150,000 compounds, of which about 540 (0.36%) showed an effect of 50% or more. The list shows a part of the results.

For the experiment, the system named is Plasmodium falciparum. Kind of experiment: Primary screen in NF54 nanoGlo assay, in single point, at 2uM, 72h; a lower Z score goes with more inhibition. It is filed as functional, Erythrocyte. The following applies: timepoint 72 hour.
Usually % Inhibition stands for the change of the read-out against control, counted positive when it falls. On to `Cc1ccc(C)c(S(=O)(=O)NCCCN(C)C)c1`, for which the “% Inhibition” value amounted to 1% and the Z score is given as -0.11.
The corresponding values for `CCCCN1CCN(C(=O)[C@H](CC)N(C)CC)CC1` are -5% and 0.87.
The corresponding values for `O=C(NCc1ccc2c(c1)OCO2)C(F)(F)C(F)(F)C(F)(F)C(F)(F)C(=O)NCc1ccc2c(c1)OCO2` are 37% and -4.23.
The corresponding values for `CCOc1ccccc1C(=O)N1CCOCc2ccccc21` are -2% and 0.33.
Take `Cc1noc(C)c1S(=O)(=O)N1CC(n2cc(C(=O)N(C)C)nn2)C1`: the “% Inhibition” value was -15% and the Z score came to 2.88.
The corresponding values for `Cc1cccn2c(=O)cc(CN3CCCCC3)nc12` are 27% and -3.52.
The corresponding values for `CN(C)c1ccc(C(=O)N[C@H]2C[C@H]3C(=O)NC[C@@H](CCC(=O)NCc4ccc(F)cc4)N3C2)cc1` are -7% and 1.33.
The corresponding values for `Cc1nnc(-c2ccccc2-c2ccc(F)cc2Cl)o1` are -13% and 1.23.
For the compound `Cc1ccc(S(=O)(=O)c2ncccc2CN2CCN(c3ccc(F)cc3)CC2)cc1`, the “% Inhibition” value was determined as 1% and the Z score is -0.19.
The matching figures for `Cc1nc(CN2CCC[C@H]2c2cccn2C)cs1`: -7% and 1.08.
The matching figures for `OCCC1(Nc2nc(C3CCCC3)ns2)CCCC1`: 2% and -0.43.
For `O=C(O)c1ccc2nc(-c3ccc(Oc4ccccc4)cc3)c(-c3ccc(Oc4ccccc4)cc3)nc2c1`, the “% Inhibition” value amounted to 1% and the Z score was -0.26.
The corresponding values for `CN(Cc1ccon1)C(=O)C[C@]1(c2ccc(-c3ccccc3)cc2)CC(=O)N(C)C1=O` are -6% and 1.13.
`Cc1cccc(C(=O)N(Cc2cccs2)[C@H]2CCS(=O)(=O)C2)c1`: the “% Inhibition” value is reported as -13% and the Z score was found to be 1.2.
The matching figures for `O=C(Cn1ccc([C@H]2CCCNC2)n1)NCc1c(F)cccc1Cl`: 0% and -0.03.
On to `O=C(NCC[C@H]1CCOC1)C1(N2CCCC2)CCCC1`, for which the “% Inhibition” value was 2% and the Z score is -0.15.
Turning to `CC1(C)NC(=O)N(CCCS(=O)(=O)Cc2ccccc2F)C1=O`, the “% Inhibition” value is reported as 12% and the Z score is given as -1.53.
Turning to `CCn1cc(OCc2ccc(C(F)F)cc2)cn1`, the “% Inhibition” value is -7% and the Z score is 1.32.
The matching figures for `CC(=O)c1ccc(NC(=O)c2cc(=O)c(OCc3ccccc3)c[nH]2)cc1`: -9% and 1.1.
For `CCCc1nc(CN(C(C)C)C2COC2)no1`, the “% Inhibition” value was 2% and the Z score is listed as -0.29.
The matching figures for `CC1CN(CC(O)COc2ccc3c(c2)OCO3)CC(C)O1` (stereo not given): -15% and 2.69.
The matching figures for `C[C@@H](c1ccncn1)N(C)Cc1cc(=O)n2ncnc2[nH]1`: -7% and 0.91.
The matching figures for `O=C(Nc1ccc(CCC(F)(F)F)cc1)N1C[C@@H](O)C[C@H]1CO`: -9% and 1.02.
As to `O=C(NC1CCCCCCC1)[C@H]1CCCN(c2ccc3nnnn3n2)C1`, the “% Inhibition” value was -21% and the Z score is recorded as 2.98.
The matching figures for `Cn1cc([C@@H](O)C(=O)N2CCC(c3c[nH]c4ccccc34)CC2)cn1`: -7% and 0.75.
The corresponding values for `COC[C@H]1CN(C(=O)c2ccc3ncccc3c2)CC12CCOCC2` are -19% and 3.56.
Take `COCc1csc(NC(=O)Nc2ccsc2)n1`: the “% Inhibition” value is on record as 7% and the Z score was -0.8.
On to `CCCC1(CNC(=O)Nc2nc(CS(C)(=O)=O)no2)CC1`, for which the “% Inhibition” value stood at 29% and the Z score is -4.13.
The matching figures for `O=C(CC1CCC1)NC1CC(F)(F)C1`: -3% and 0.55.
As to `Cc1cccc(NC(=O)[C@H](C)n2c(C)nc3onc(C)c3c2=O)c1C`, the “% Inhibition” value is listed as 1% and the Z score was -0.14.
The corresponding values for `C[C@@H]1CN(C(=O)c2n[nH]c(N)c2Cl)CC[C@@]1(O)C1CCOCC1` are -9% and 1.52.
The matching figures for `CC1CCN(CCCn2c(=O)[nH]c3ccccc32)CC1`: -6% and 0.75.
The corresponding values for `Cc1nc(C(=O)N(CCc2cccc(F)c2)C2CC2)ccc1C(=O)O` are -1% and 0.15.
Take `O=C(CN1CCN(S(=O)(=O)c2ccc3c(c2)CCCC3)CC1)Nc1ccc(F)c(Cl)c1`: the “% Inhibition” value is 3% and the Z score was -0.26.
The corresponding values for `Cn1c(CC(F)(F)F)nnc1N1CCOCC2(CCC2)C1` are -10% and 1.94.
The matching figures for `Cc1nn(-c2ccccc2)c(C)c1N1CCN(C(=O)c2ccc3nsnc3c2)CC1`: 4% and -0.63.
The corresponding values for `CCc1ccccc1CN=C(N)NC(C)(C)C` are 6% and -0.64.
As for `Cc1cc(CNC(=O)NCCC2(C)OCCO2)ccc1Cl`, the “% Inhibition” value is listed as -2% and the Z score came out at 0.18.
Regarding `C[C@]1(c2cccc(F)c2)CCN(C(=O)Nc2ccnn2C2CCC2)C1`, the “% Inhibition” value is reported as -10% and the Z score came to 1.36.
As for `Nc1n[nH]c2ccc(C3OCCCO3)cc12`, the “% Inhibition” value worked out at 37% and the Z score was -4.79.
The matching figures for `O=C(Cc1ccc(Cl)cc1)N1CCN(c2cnsn2)CC1`: -15% and 1.98.
The matching figures for `c1ccc(CCN2CCC(c3ccsc3)CC2)nc1`: 0% and -0.03.
The matching figures for `N#CCN(Cc1ccccc1)C(=O)CCc1ccc2c(c1)OCO2`: -5% and 0.42.
Consider `O=C1CN(CCCOc2ccc(F)cc2)CCCN1`, for which the “% Inhibition” value was 8% and the Z score is -1.12.
Turning to `O=C(CN1CCC(O)CC1)N1CCC[C@H](c2[nH]ncc2-c2ccc(F)cc2)C1`, the “% Inhibition” value is listed as -11% and the Z score turned out to be 1.08.
`c1ccc(N2CC[C@H](N3CCN(c4ccncc4)CC3)C2)cc1`: the “% Inhibition” value is given as 4% and the Z score is reported as -0.61.
The corresponding values for `Cc1nc(C(=O)N2CCN(Cc3ccccc3)CC2)co1` are -7% and 1.
The matching figures for `CCCN(CC1CC1)S(=O)(=O)N1CCC[C@@H]1CO`: -16% and 1.82.
The matching figures for `O=C(Cn1cnc2cc3c(cc21)OCCCO3)Nc1ccc(F)cc1`: 31% and -4.49.
As to `Cc1cc(C(=O)NC2CCN(C(=O)c3cn[nH]c3)CC2)ccc1F`, the “% Inhibition” value worked out at 1% and the Z score was -0.11.
As to `Cc1ccc(CNS(=O)(=O)c2ccc3c(c2)C(C)(C)CN3CC(=O)N2CCCC2)cc1`, the “% Inhibition” value is -1% and the Z score was determined as 0.08.
The corresponding values for `CN1CCC(CNC(=O)c2ccc(-c3ccc(C#N)nc3)cc2)(N(C)C)CC1` are 4% and -0.48.
Consider `Cn1cc(-c2noc(-c3ccc(C#N)cc3)n2)ccc1=O`, for which the “% Inhibition” value was 36% and the Z score is reported as -5.18.
The matching figures for `Cc1nn(C[C@@H](O)CN2C(=O)c3ccccc3C2=O)c(C)c1Br`: -8% and 1.01.
For `CNC(=O)CN1CCC(CN(C)c2noc(-c3ccccc3)n2)CC1`, the “% Inhibition” value is -2% and the Z score was found to be 0.17.
